# Source: PubChem BioAssay AID1345083 (National Center for Advancing Translational Sciences (NCATS), 2018)
# Out of some 94,000 compounds screened, about 6,200 (6.6%) were called active. Inconclusive results, whose numbers are uncertain, are shown with a selection of clear calls. The call rests on the fitted dose curve; in most records, active means well fitted inhibition curve with a large enough effect; inconclusive means small, poorly fitted or top-dose-only effect; inactive means flat fitted curve, though single readings scatter. Potencies beside an inconclusive call are fits to weak or partial responses and may not hold up.
# Assay: Cytotoxic Profiling in HEK 293 Cell Line of Diverse Libraries Using Quantitative High-Throughput Screening; further: nearly all actives have a fitted effect of over 60% in size
# Conditions: HEK 293 viability, ATP luminescence (CellTiter-Glo), 48-72 h; series mostly up to 115 µM
# Summary of the method: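 HEK 293 seeded at 250 cells/well receive compound via pintool. After 48 or 72 hr at 37 degree Celsius, 5% CO2 and 95% humidity, CellTiter-Glo is dispensed and luminescence read following 10 min at room temperature.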
# Potency means the concentration at half of the fitted maximal effect; tags describe the fitted curve by direction and shape.
row,SMILES,Potency
1,O=C1c2c(nc(COc3ccc4c(c3)OCO4)n2Cc2ccccc2)NCCN1CCOc1ccccc1,active: 39.8 µM
2,CNC(=O)c1cc(C2CC2)nc2c1c(C1CCN(C(=O)C3CC3)C1)nn2C (stereo not drawn),inactive
3,Cc1ccc2nc(CN3CCCC(CO)(CC4CC4)C3)cn2c1 (stereo not drawn),"inconclusive: 89.1 µM [inhibitor, partial curve, poor fit]"
4,COc1ccccc1Nc1ccnc(N2CCCC(C(=O)N3CCOCC3)C2)n1 (stereo not drawn),"inconclusive: 56.2 µM [inhibitor, partial curve, poor fit]"
5,CC(C)Oc1cccc2c1c(NC(=O)c1cc(F)cc(C#N)c1)nn2C,"inconclusive: 56.2 µM [inhibitor, partial curve, poor fit]"
6,COCCS(=O)(=O)c1ncc(CN(C)Cc2ccsc2)n1Cc1ccccc1,"inconclusive: 79.4 µM [inhibitor, single point]"
7,CC(=O)NC1(C)CCN(Cc2ccc(Nc3ccc(N4CCOCC4)c(F)c3)cc2)C1 (stereo not drawn),"inconclusive: 100 µM [inhibitor, partial curve]"
8,CN(Cc1cccnc1)C(=O)CC(c1ccccc1)c1ccccc1F (stereo not drawn),"inconclusive: 44.7 µM [inhibitor, partial curve, poor fit]"
9,CCOc1ccc(CC(=O)N2CCN(c3cc(-c4cccs4)[nH]n3)CC2)cc1OCC,active: 44.7 µM
10,CN(C)c1cccc(NC(=O)C2=NO[C@@H]3CN(Cc4ccc(F)cc4)C[C@H]23)c1,"inconclusive: 100 µM [inhibitor, partial curve, poor fit]"
11,O=C1CC2(CCN(C(=O)c3ccc(C(F)(F)F)cc3)CC2)Oc2cc(Cl)ccc21,active: 35.5 µM
12,Cc1cccc(C(=O)N2CC(CNC(=O)N3CCCC3)C3(CCOCC3)C2)c1 (stereo not drawn),inactive
13,COC(=O)CNC(=O)c1ccc2nccn2c1,inactive
14,O=C(N[C@@H]1CN(Cc2ccccc2)C[C@H]1CO)c1ccnnc1,inactive
15,CCCNC(=O)C1COC2(CCC(C)CC2)N1C(=O)c1ccc(Cl)c(Cl)c1 (stereo not drawn),"inconclusive: 79.4 µM [inhibitor, partial curve, poor fit]"
16,O=C(NCc1ccccc1Cl)C1CCCN(Cc2cccc(-c3cccs3)c2)C1 (stereo not drawn),"inconclusive: 50.1 µM [inhibitor, partial curve, poor fit]"
17,Cc1ccc(-c2cc(N3CCCN(C(=O)c4ccccc4C)CC3)n[nH]2)cc1C,active: 31.6 µM
18,COc1cccc(CC(=O)N2CCC3(CC2)N=C(c2ccc(Cl)cc2)NO3)c1,"inconclusive: 25.1 µM [inhibitor, partial curve, poor fit]"
19,CCC(=O)N1Cc2ccccc2CC2(CCN(CCc3ccc(C)cc3)CC2)C1,"inconclusive: 50.1 µM [inhibitor, partial curve, poor fit]"
20,CC(=O)Nc1ccc(S(=O)(=O)N[C@H]2CO[C@H]3[C@@H]2OC[C@@H]3Nc2nccc(-c3cccs3)n2)cc1,active: 35.5 µM
21,COC(=O)[C@@H]1Cc2c([nH]c3ccccc23)[C@H]2C[C@@H](NCCN3CCOCC3)C[C@@H](c3ccccc3F)N21,"inconclusive: 20 µM [inhibitor, full curve, poor fit]"
22,O=C(Cc1ccc(F)cc1)N1CCCC(C(=O)N2CCC(c3nc4ccncc4[nH]3)C2)C1 (stereo not drawn),inactive

row,SMILES,Potency
1,CCc1ccc(C(=O)NC2CCN(c3cn[nH]c(=O)c3)CC2)cc1,inactive
2,COc1ccc(CNc2ncnc3c2CN(C2CCNCC2)C(=O)CN3C)cc1OC,inactive
3,COc1cc(CNC(=O)CN2CC3CC(C2)[C@H]2CCCC(=O)N2C3)cc(OC)c1 (stereo partly drawn),inactive
4,COc1ccc2c(c1)CN(Cc1ccccc1)C(=O)CCN2CC(O)Cc1ccccc1 (stereo not drawn),active: 79.4 µM
5,O=C(c1ccc2c(c1)OCO2)N1CCN(c2cc(-c3ccc(Cl)cc3)[nH]n2)CC1,"inconclusive: 50.1 µM [inhibitor, partial curve, poor fit]"
6,Cc1ccc(CNC(=O)C2CN(S(=O)(=O)c3cccnc3)CC23CCCCC3)o1 (stereo not drawn),inactive
7,Cc1ccc(C)c(C(=O)Nc2ccc3c(N4CCCC4)ncnc3c2)c1,"inconclusive: 89.1 µM [inhibitor, partial curve, poor fit]"
8,Cc1ccc(CCNc2ncncc2-c2nc(-c3ccccc3)no2)cc1,inactive
9,O=C(Nc1ccc([C@@H](O)[C@H]2COCC(=O)N2CCCc2ccccc2)cc1)C1CCC1,inactive
10,O=C(C1CC1)N1CCC2(CC1)CC(N(Cc1ccccc1)C1CC1)CCO2 (stereo not drawn),"inconclusive: 63.1 µM [inhibitor, partial curve, poor fit]"
11,CCn1ccnc1CN(C)Cc1cn(Cc2ccccc2)nc1-c1ccc2c(c1)OCO2,"inconclusive: 50.1 µM [inhibitor, partial curve, poor fit]"
12,O=C(NC[C@H]1O[C@H](Cc2cc(-c3ccc(F)cc3)on2)CC[C@@H]1O)C1CCC1,"inconclusive: 89.1 µM [inhibitor, partial curve, poor fit]"
13,c1ccc(-c2ccc(CN3CCOC[C@H](Oc4cnccn4)C3)cc2)cc1,"inconclusive: 100 µM [inhibitor, partial curve, poor fit]"
14,CS(=O)(=O)N1CCOc2ccc(CCC(=O)NCCCN3CCOCC3)cc2C1,inactive
15,O=C(CC1CCCCN(Cc2ccccc2)C1=O)NCc1ccccc1 (stereo not drawn),"inconclusive: 50.1 µM [inhibitor, partial curve, poor fit]"
16,COCCCNC(=O)CNC(=O)c1cccc(-c2ccc(SC)cc2)c1,"inconclusive: 39.8 µM [inhibitor, partial curve, poor fit]"
17,COc1ccccc1-c1ccc2ncc(Nc3cccc(N[S+](C)(=O)[O-])c3)n2n1,active: 63.1 µM
18,COCCOC1CCOC2(CCN(C(=O)Cc3ccccc3F)CC2)C1 (stereo not drawn),inactive
19,CC(C)(C)C(=O)NC1CCN(C(=O)c2ccc(-c3ncccc3C#N)cc2)CC1,inactive
20,Cc1noc2c(NCc3ccccc3)cc(-c3cccnc3)nc12,inactive
21,O=C1NCc2cc(-c3cc4c(ccn4Cc4ccncc4)c(N4CCOCC4)n3)ccc21,"inconclusive: 63.1 µM [inhibitor, full curve]"
